Laboratory results taken from PubChem BioAssay (NCATS).
The inconclusive results got no clear call from the source; some entries with a clear call stand among them for comparison. Potencies of inconclusive entries are doubtful fits and often do not repeat. Activity calls are given as the source filed them. Calls follow the shape of the dose curve; as a rule, active = well fitted inhibition curve with a large enough effect; inconclusive = small, poorly fitted or top-dose-only effect; inactive = no such curve, though single readings can be large or run the other way.

Experiment: qHTS assay to identify inhibitors of the type 1 interferon - major histocompatibility complex class I in skeletal muscle: Counter screen cell viability and HiBit confirmation (AID 1347412); also: nearly all actives have a fitted effect of over 60% in size
Details: iHSKM muscle cells + IFN-b, HiBiT or CellTiter-Glo, 24 h; Viability
Outline: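 Duplicate plates, pinned identically: one read for HiBiT-tagged endogenous HLA-B luminescence, the other for ATP-content viability via CellTiter Glo. Cells were genome-engineered human myoblasts given 4 ng/ml IFN-b; compounds 12-pt, 1:3 from 46 uM final; 24 hr exposure.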
Potency is read from the fitted curve at half-maximal effect; tags tell the direction and shape of the fitted curve.

**Q.** For `CO[C@H]1CCC(O[C@H]2C[C@H]([C@]3(C)CC[C@]4(C[C@H](O)[C@@H](C)[C@@H]([C@@H](C)/C=C(\C)C(=O)[C@H](C)C[C@H](C)C(=O)O)O4)O3)O[C@]3(O[C@@H]([C@H]4O[C@@](O)(CO)[C@H](C)C[C@@H]4C)C[C@@H]3C)[C@@H]2C)O[C@@H]1C` (some centres undefined), which Potency is on record?
**A.** active: 14 µM

**Q.** For `CC(=O)OC[C@H]1O[C@@H]([S-])[C@H](OC(C)=O)[C@@H](OC(C)=O)[C@@H]1OC(C)=O.CC[PH+](CC)CC.[Au]`, which Potency is on record?
**A.** inconclusive: 15.7 µM [cytotoxic, single point]

**Q.** Which Potency does the source give for `C[C@@]12OC(=O)[C@]1([C@@H](O)[C@@H]1C=CCCC1)NC(=O)[C@@H]2CCCl` here?
**A.** inconclusive: 0.176 µM [cytotoxic, full curve]

**Q.** For `CCCCCCC(C)(C)c1cc(O)c2c(c1)OC(C)(C)C1CC=C(CO)C[C@H]21` (some centres undefined), which Potency is on record?
**A.** active: 35.2 µM
